About 600 (0.17%) of roughly 350,000 compounds were called active. The shares of active, inactive and inconclusive entries below differ from those in the screen.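 Rule for the calls: active = every replicate shows inhibition of at least 40%; inconclusive = mean inhibition at least 40% but some replicate below; inactive = the rest.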
Experiment: inhibitors of PGC1a acetylation signal, primary screen, cell-based, U2OS, AlphaScreen, inhibitor mode (AID 651687);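 note: 0% = neutral control wells and 100% = positive control wells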
Conditions: AlphaScreen anti-acetyl-lysine, at 15.6 µM, hits give high values, with virally co-expressed GCN5 acetyltransferase

SMILES	inhibition
CO[C@H]1CN(C)C(=O)c2cc(C#N)ccc2OC[C@@H]2O[C@H](CC[C@H]2OC)CCN(C)C(=O)[C@H]1C	inactive: -6.05%
O=C(Nc1ccccc1F)N[C@H]1CC[C@@H](CCNC(=O)C2CCC2)O[C@H]1CO	inactive: -12.2%
CO[C@@H]1CN(C)C(=O)c2cc(NC(C)=O)ccc2OC[C@H](C)N(Cc2cc(F)ccc2F)C[C@H]1C	inconclusive: 55%
CC(C)N1CCc2c(sc(NC(=O)C3CCCCC3)c2C(N)=O)C1	active: 43.7%
Cc1ccc(Cl)cc1NC(=O)Cn1nc(-c2cccs2)ccc1=O	inconclusive: 40.3%
O=C(CC1CC1)N[C@H]1CC[C@@H](CCNS(=O)(=O)c2ccc(Cl)cc2)O[C@@H]1CO	active: 67%
Cc1noc(C)c1NC(=O)Nc1ccc2c(c1)C(=O)N([C@H](C)CO)C[C@@H](C)[C@@H](CN(C)S(=O)(=O)c1ccc(F)cc1)OCCCC[C@@H](C)O2	inconclusive: 42.2%
CC(C)NC(=O)Nc1ccc2c(c1)CC(=O)N([C@@H](C)CO)C[C@@H](C)[C@@H](CN(C)CC1CC1)O2	inactive: 3.75%
Nc1ccccc1-c1ccn[nH]1	inconclusive: 41.1%
CCOC(=O)c1c2n(c3ccc(OC(C)=O)cc13)CCC2	inactive: -1.59%
CN1/C(=C\C(=O)c2cccc(S(=O)(=O)N3CCCCC3)c2)C(C)(C)c2ccccc21	inconclusive: 40.5%
CC1=C(C(=O)OCc2ccc3c(c2)OCO3)C(c2ccc(Cl)cc2)NC(=O)N1 (stereo unspecified)	inconclusive: 43.3%
N#C[C@@H]1[C@H](c2ccccc2C2=CCCCC2)[C@H](CO)N1C(=O)Cc1ccncc1	active: 44.7%
CCCCN(C)Cc1c(C)[nH]c2ccccc2c1=O	inconclusive: 48.9%
N#Cc1ccc(C(c2ccc(C#N)cc2)n2cncn2)cc1	inconclusive: 48.6%
O=C(Cc1ccncc1)NCC[C@H]1CC[C@@H](NC(=O)C2CC2)[C@H](CO)O1	active: 62.4%
Cc1cc(C(F)(F)F)n(-c2nc(C(=O)NNS(=O)(=O)c3ccccc3[N+](=O)[O-])cs2)n1	active: 110%
COc1ccc(CC2C(=O)NC(C)C(=O)N(C)C3Cc4ccc(cc4)Oc4cc(ccc4O)CC(C(=O)NC(C)C(=O)NC(C)C(=O)N2C)N(C)C3=O)cc1 (stereo unspecified)	active: 69.5%
CCc1nccn1S(=O)(=O)c1cc(C)c(OC)cc1C	inconclusive: 49.9%
CC(C)Nc1oc(-c2cccc3ccccc23)nc1C#N	inactive: -1.87%
CC(C)CS(=O)(=O)C1=NN2C(=N)/C(=C\c3ccc(OC(=O)c4ccco4)cc3)C(=O)N=C2S1	inactive: -5.29%
CN(C)/C=N/c1sc2c(c1C#N)CCCC2	inactive: 19.4%
C[C@@H]1CN([C@@H](C)CO)C(=O)c2cc(NS(C)(=O)=O)ccc2O[C@@H](C)CCCCO[C@H]1CN(C)C(=O)Nc1ccc(F)cc1	inconclusive: 47.8%
CCOc1ccc(N2C(=O)Cc3ccccc3C2=O)cc1	active: 43.2%
CC(=O)Oc1ccccc1C(=O)C=Cc1cccc([N+](=O)[O-])c1	inactive: -4.08%
CO[C@H]1CN(C)C(=O)c2cc(NS(C)(=O)=O)ccc2OC[C@H](C)N(C(=O)NC(C)C)C[C@@H]1C	inconclusive: 48.5%

SMILES	inhibition
Cc1cc(C)nc(N2CCC(C(=O)NCc3ccco3)CC2)n1	active: 94.9%
CC(C)NC(=O)N(C)C[C@H]1OCc2cnnn2CCCC(=O)N([C@@H](C)CO)C[C@H]1C	inconclusive: 41.5%
CC(C)(C)NC(=O)CSc1nnc(-c2ccccc2)c(-c2ccccc2)n1	inactive: 2.91%
C[C@@H]1CN([C@@H](C)CO)C(=O)Cc2cc(NC(=O)Cc3ccccc3)ccc2O[C@H]1CN(C)C(=O)Nc1ccccc1	inconclusive: 49.3%
COC1(C)CN(Cc2ccccc2Br)[C@H](/C=C/c2ccccc2)[C@H](Cc2ccccc2)O1 (stereo partly specified)	inconclusive: 50.9%
COc1ccccc1CNC(=O)C[C@@H]1CC[C@@H]2[C@H](COC[C@H](O)CN2C(=O)Nc2ccc(Cl)cc2)O1	inconclusive: 56.1%
CN1C2C=C3C(C#N)=C(N)C(C#N)(C#N)C(c4ccc(Br)cc4)C3C1CC2 (stereo unspecified)	inconclusive: 41.5%
Cc1noc(C)c1NC(=O)N(C)C[C@H]1Oc2c(NC(=O)c3nc4ccccc4s3)cccc2C(=O)N([C@H](C)CO)C[C@H]1C	inconclusive: 53.5%
CCn1c(C(C)NC(=O)c2ccccc2C)n[nH]c1=S (stereo unspecified)	inconclusive: 49.8%
O=C(C[C@@H]1CC[C@H]2[C@@H](COC[C@@H](O)CN2Cc2ccc(Cl)cc2)O1)NCc1cccc(F)c1	inactive: -6.25%
CCC(=O)NCc1c(C)c(C)n(Cc2ccccc2)c1-n1cccc1	inconclusive: 43.1%
CCC(=O)N1C[C@@H](C)[C@@H](OC)CN(C)C(=O)c2cc(NC(=O)NC(C)C)ccc2OC[C@H]1C	inactive: 6.56%
O=C(NNS(=O)(=O)c1ccc(F)cc1)c1ccc(S(=O)(=O)N2CCCCC2)cc1	inconclusive: 41.4%
CN(C)C(=O)C[C@@H]1CC[C@@H]2[C@H](COC[C@@H](O)CN2C(=O)C2CCOCC2)O1	inconclusive: 55.5%
CCN(CC)c1cc(Cl)nc(N)n1	inconclusive: 43.2%
COCCOc1ccc(C(F)(F)F)cc1NC(=O)CN1C(=O)NC2(CCCc3ccccc32)C1=O (stereo unspecified)	inconclusive: 54.6%
NCCCn1c(C(=O)c2cc(Cl)c(N)c(Cl)c2)c2ccc([N+](=O)[O-])cc2[n+]1[O-]	active: 54.4%
Cc1ccc(N)cc1S(=O)(=O)N(C)C	inconclusive: 45.6%
O=C(COC(=O)CCC(=O)c1ccc(F)cc1)NCCc1ccccc1	inactive: -2.99%
Cc1ccc(NC(=O)C(OC(=O)c2ccc(F)cc2)c2ccccc2)cc1Cl (stereo unspecified)	inactive: -0.916%
COc1ccc(NC(=O)N(C)C[C@@H]2OCCCC[C@H](C)Oc3ccc(NS(C)(=O)=O)cc3C(=O)N([C@H](C)CO)C[C@@H]2C)cc1	inactive: 6.55%
C[C@@H]1CN([C@@H](C)CO)C(=O)CCCn2nncc2CO[C@H]1CN(C)Cc1ccc(O)cc1	inconclusive: 45%
C[C@@H]1CCCCO[C@@H](CN(C)CC2CC2)[C@@H](C)CN([C@H](C)CO)C(=O)c2cc(NC(=O)C3CCCCC3)ccc2O1	inconclusive: 52.5%
CCCCN(CCCC)CCNC(=O)c1ccc2nc(-c3ccccc3NC(C)=O)c(=O)[nH]c2c1	inconclusive: 42.1%
NC1=C(Br)C(=O)c2ncccc2C1=O	active: 87.1%
COc1ccc(NC(=O)/C(Cl)=C(/Cl)S(=O)(=O)Cc2ccccc2)cn1	active: 64.4%

SMILES	inhibition
CCCc1nc2c(=O)n(C)c(=O)nc-2n(C)n1	active: 74.5%
CN1c2ccc(C#Cc3cccnc3)cc2[C@@H]2[C@@H](CCN2C(=O)C2CCCCC2)[C@H]1CO	inactive: -13.7%
COc1cccc(C#Cc2ccc3c(c2)[C@H]2[C@H](CCN2S(=O)(=O)c2cccc(OC)c2)[C@@H](CO)N3)c1	inactive: -9.39%
O=C(NC(=S)Nc1cc(Cl)ccc1O)c1cccc(Br)c1	inconclusive: 55.9%
CC(C)(C)c1ccc(C(=O)NCCN2CCOCC2)cc1	active: 64.8%
CCCOc1ccccc1C1C(C(=O)OC)=CN(C(C)C)C=C1C(=O)OC	inconclusive: 92.1%
CC(Nc1ccccc1)c1cc(Cl)ccc1O (stereo unspecified)	inconclusive: 48.2%
Oc1ccc(C[C@H]2CNC(=S)N2CC2CCCN2C[C@H](Cc2ccc(O)cc2)N2C[C@H](Cc3ccccc3)N(CC3CCCCCC3)C2=S)cc1 (stereo partly specified)	inactive: -19.6%
CCN(CC)CCNC(=O)c1ccc2c(c1NCCO)C(=O)c1ccccc1C2=O	active: 91.6%
C[C@@H]1CCCCO[C@@H](CN(C)C(=O)c2ccccc2)[C@@H](C)CN([C@H](C)CO)C(=O)c2cc(NC(=O)Nc3ccc(C(F)(F)F)cc3)ccc2O1	inactive: 13.3%
Cc1nc2ccccn2c1C(=O)/C=C/c1ccc(F)cc1	inconclusive: 40.9%
CCc1ccc(-c2cn3nc(-c4ccccc4)cnc3n2)cc1	inconclusive: 44.6%
CCN(CC)CC(=O)N1c2ccccc2CCc2ccc(NC(=O)c3cc(OC)c(OC)c(OC)c3)cc21	inconclusive: 41.2%
O=c1c2c(nc3c(-c4ccc(Cl)cc4)c[nH]n13)CCCC2	inconclusive: 40.6%
CCOC(=O)c1c(-c2ccc(C)cc2C)csc1NC(=O)CSc1nnnn1C	inconclusive: 46.2%
CCc1nc2c(OCc3ccc(S(C)(=O)=O)cc3)cccn2c1N(C)C(=O)c1ccccc1F	active: 45.3%
CCN1CCN(c2nnc(-c3ccccc3)c3ccccc23)CC1	inconclusive: 45.7%
COc1ccc(N=C2C(=Nc3ccc(OC)cc3)N(c3ccc(OC)cc3)C(=S)N2C(=O)c2ccc(OC)cc2)cc1	inconclusive: 46%
CC(=O)CSc1nc2c(c(=O)[nH]c(=O)n2C)n1Cc1ccccc1Cl	inactive: 0.102%
COc1ccc(NC(=S)Nc2ncccc2C)cc1OC	inactive: -4.78%
Cc1cccn2c(=O)c3cc(C(=O)NCc4ccco4)c(=N)n(CCc4ccccc4)c3nc12	inconclusive: 55.2%
S=C1NC2=C(CCCC2=C2SCCS2)C(c2ccccc2)N1 (stereo unspecified)	inconclusive: 41.1%
O=C(CCC1CCCN(C(=O)c2cc(C3CC3)[nH]n2)C1)N1CCN(c2ccccn2)CC1 (stereo unspecified)	active: 97.8%
CC(C)C#Cc1cnc2c(c1)C(=O)N([C@H](C)CO)C[C@H](C)[C@H](CN(C)C(=O)c1ccccn1)O2	inconclusive: 44.8%

Source: PubChem BioAssay AID651687 (Broad Institute, 2012)
